Out of some 330,000 compounds screened, about 300 (0.091%) were called active. The shares of active, inactive and inconclusive entries below differ from those in the screen. Calls come from the whole dose curve; as a rule, active = well fitted inhibition curve with a large enough effect; inconclusive = small, poorly fitted or top-dose-only effect, or effect the other way, or another doubt; inactive = no such curve, though single readings can be large or run the other way. Potencies of inconclusive entries are left out as doubtful fits.
biological target: Lysosomal acid glucosylceramidase (Homo sapiens) (UniProt P04062); assay: qHTS Assay for Inhibitors and Activators of N370S glucocerebrosidase as a Potential Chaperone Treatment of Gaucher Disease; settings: N370S GC spleen homogenate, 4MU-glucoside fluorescence; activity change, negative = inhibition: at 59.4 µM (top of the series) unless noted;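 for activity change, negative = inhibition: 0% = full enzyme activity and -100% = no enzyme basal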
Potency is the fitted concentration of half-maximal effect.

Structure (SMILES) | Potency | activity change, negative = inhibition
O=C(Nc1nc2ccccc2[nH]1)C1CCCO1 (centres undefined) | inactive | 
O=C(NC(=S)NCCC1=CCCCC1)c1ccc(Br)o1 | inactive | 
Cc1cccc(CNc2ncnc3ccc(-c4ccc5c(ccn5C)c4)cc23)c1 | inactive | 
Cn1nc(-c2ccccc2)c2ncc(C(F)(F)F)cc21 | inconclusive [activator, partial curve] | 
CC(=O)N1N=C(c2c(-c3ccccc3)c3cc(C)ccc3[nH]c2=O)CC1c1ccco1 (centres undefined) | inconclusive [inhibitor, single point] | 
COc1ccc(-c2cc(C(=O)N3CCC3)c3ccccc3n2)cc1OC | inactive | 
CC/C(=N\NC(=S)Nc1cccc(C)c1)c1ccccc1 | inconclusive [activator, partial curve, poor fit] | 
O=C(N/N=C/C(Br)=C/c1ccccc1)C1CC1 | inactive | 
CCOc1ccc(OCC)c(S(=O)(=O)NNC(=O)c2c(C)nc3ccccn23)c1 | inactive | 
CCc1nc(-c2ccc(-c3ccc(OC)cc3)nc2OC)no1 | inactive | 
CC(C)Oc1ccc(CNC(=O)c2ccc3c(c2)N(C)CCS3)cc1 | inconclusive [activator, single point] | 
Cc1ccc(NC(=O)c2noc3c2CCCCC3)cc1 |  | inconclusive: 30.5% [activator]
O=C(NNS(=O)(=O)c1ccc(CCCl)cc1)C(O)(c1ccccc1)c1ccccc1 | inconclusive [activator, partial curve] | 
CN(C)C(=S)SC(=S)N(C)C | inactive | 
Cc1csc2c(N3CCN(C(=O)c4ccc(C(C)(C)C)cc4)CC3)ncnc12 | inconclusive [inhibitor, single point] | 
CCOC(=O)[C@H]1[C@H]2COc3ccc(Cl)cc3[C@@H]2N2C(=O)c3ccc(Cl)cc3NC(=O)[C@@]12C | inconclusive [activator, single point] | 
CSc1nnc(-c2cccn(Cc3cccc(Cl)c3)c2=O)o1 | inconclusive [activator, single point] | 
COc1ccccc1C1CC(=O)NC(C)=C1C(=O)OCC(C)C (centres undefined) |  | inconclusive: 24% [activator]
COC(=O)c1cc(-c2ccc(OC)cc2)nc2nc(SC)[nH]c(=O)c12 | inconclusive [activator, single point] | 
CCOc1ccccc1NC(=O)CSc1nc2nc(-c3cccs3)cc(C(F)(F)F)c2c(=O)[nH]1 | inconclusive [activator, partial curve] | 
CC(C)c1ccccc1NC(=O)CNCCc1ccc(C(F)(F)F)cc1 | inconclusive [inhibitor, single point] | 
C=CCn1c(CNC(=O)c2cccs2)n[nH]c1=S | inconclusive [activator, full curve, poor fit] | 
CCO[C@@H]1OC(C(=O)NCc2nc3ccccc3[nH]2)=C[C@H](c2ccc(C(F)(F)F)cc2)[C@H]1CCCO | inconclusive [inhibitor, single point] | 

Structure (SMILES) | Potency | activity change, negative = inhibition
S=C(NCc1ccccc1)Nc1cccc(Cl)c1 | inconclusive [inhibitor, full curve, poor fit] | 
CN(C)c1ccc(-c2cc(Nc3ccc(F)cc3)ncn2)cc1 | inconclusive [activator, partial curve] | 
C/C(=N\Nc1ccc(Cl)c(C(=O)O)c1)c1cccs1 | inactive | 
CCOc1ccccc1-c1nnc2n1N=C(c1cc(OC)ccc1OC)CS2 | inactive | 
COc1ccccc1CN1CCCC2(CCN(C(=O)c3ccncc3)CC2)C1 | inactive | 
O=C(Oc1coc(CSc2nnc(NC(=O)c3cccs3)s2)cc1=O)c1ccccc1 | inconclusive [inhibitor, full curve, poor fit] | 
Cc1ccc(NC(=O)OCCN2CCN(Cc3ccccc3)CCC2=O)cc1C | inconclusive [inhibitor, partial curve] | 
O=S(=O)(c1cc(-c2nc3ccccc3s2)ccc1Cl)N1CCOCC1 | inconclusive [inhibitor, single point] | 
CCCCc1ccc(S(=O)(=O)Nc2nnc(C)s2)cc1 | inconclusive [activator, partial curve] | 
COc1ccc(N(C(=O)c2cccnc2)S(=O)(=O)c2ccccc2)cc1 | inconclusive [inhibitor, partial curve] | 
CCC(CC)NC(=O)c1nn(Cc2ccccc2)c(=O)c2ccccc12 | inconclusive [activator, partial curve] | 
COc1ccc(NC(=S)NCCC(c2ccccc2)c2ccccc2)c(OC)c1 | inconclusive [activator, partial curve] | 
C=Cc1c(C)c2cc3nc(cc4[nH]c(cc5nc(cc1[nH]2)C(C)=C5CCC(=O)O)c(CCC(=O)OC)c4C)[C@@]1(C)C3=CC=C(C(=O)OC)[C@H]1C(=O)OC (tested in a mixture with another compound) | inconclusive [inhibitor, single point] | 
Cc1ccc(C(NC(=O)c2ccccc2)C(Cl)(Cl)Cl)cc1 (centres undefined) | inconclusive [activator, single point] | 
COc1cc2c(C(=O)N3CCN(C)CC3)c(CSc3ccccc3)n(C)c2cc1Br | inconclusive [inhibitor, single point] | 
C(=N\Nc1nc2ccccc2[nH]1)/c1c[nH]c2ccccc12 | inactive | 
O=c1cc(CSc2nc3ccccc3[nH]2)c2ccccc2[nH]1 | inconclusive [activator, partial curve] | 
CCc1cc(-c2[nH]ncc2-c2ccc([N+](=O)[O-])cc2)c(O)cc1OC | inconclusive [inhibitor, partial curve] | 
CCC1CC=CC2C1C(=O)N(Cc1ccccc1)C2c1ccc(C(F)(F)F)cc1 (centres undefined) | inactive | 
c1cncc(-c2nnc(-c3ccco3)o2)c1 | inactive | 
O=C1CCCC2=C1C(c1cccs1)n1nc(SCc3ccccc3F)nc1N2 (centres undefined) | inconclusive [activator, partial curve] | 
NC(=O)[C@H]1CC2(CC(c3cccc(NC(=O)COc4ccc(Cl)cc4)c3)=NO2)CN1C(=O)CC(c1ccccc1)c1ccccc1 (some centres undefined) | inactive | 
Cc1ccc2c(c1)C1CC(C)(O2)N(c2cccc(C(=O)NC3CCN(Cc4ccccc4)CC3)c2)C(=O)N1 (centres undefined) | inconclusive [inhibitor, single point] | 

Structure (SMILES) | Potency | activity change, negative = inhibition
Cc1ccc(-n2nc(C)c(C(=O)O)c2-n2cccc2)cc1 | inactive | 
CCCCCCNc1c(C(=O)OCC)c(=O)[nH]c2ccccc12 | inconclusive [activator, partial curve] | 
Cc1ccc(C(=O)Cn2c(=N)n(N)c3ccccc32)cc1 | inconclusive [inhibitor, full curve, poor fit] | 
O=c1cc(N2CCCCC2)[nH]c(=O)n1C1CCCCC1 | inconclusive [activator, partial curve] | 
O=C(COc1ccccc1Cl)Nc1ccc2c(c1)C(=O)NC2=O | inconclusive [activator, partial curve] | 
CC1C2(C)OC(=N)C(C#N)(C(C)O2)C1(C#N)C#N (centres undefined) | inconclusive [activator, partial curve] | 
CCn1c(COc2ccc(C)cc2)nnc1SCC(=O)Nc1ccc2c(c1)OCCO2 | inactive | 
Cc1ccc(N(C)S(=O)(=O)c2cccc(C(=O)Oc3ccc4c(C)cc(=O)oc4c3)c2)cc1 | inconclusive [activator, partial curve] | 
O=C(c1cccs1)N(Cc1nc2sc3c(c2c(=O)[nH]1)CCCC3)C1CCCC1 | inconclusive [activator, partial curve] | 
Brc1ccc2nc(-c3cccs3)c(NCC3CCCO3)n2c1 (centres undefined) | inconclusive [inhibitor, partial curve] | 
CCCCC(CC)COC(=O)c1ccc(N(C)C)cc1 (centres undefined) | inconclusive [activator, partial curve] | 
C=CC1=C2C=C(C3CC3)N(C3CCCCC3)C=C2C(=O)C(C)(OC(=O)c2ccco2)C1=O (centres undefined) |  | inactive: -6.11% [at 12.8 µM]
CCN1C(=O)[C@H]2[C@@H](c3ccc(-c4ccc5c(c4)OCO5)c(OC)c3)N[C@@](CC(C)C)(C(=O)OC)[C@H]2C1=O | inconclusive [activator, single point] | 
CC(C=O)Cc1ccc(C(C)(C)C)cc1 (centres undefined) | inactive | 
Cc1ccc(N(C(=O)c2snc(C(N)=O)c2N)C(C(=O)NC2CCCC2)c2ccc(C)o2)cc1 (centres undefined) | inconclusive [activator, partial curve] | 
O=C(Cc1ccc([N+](=O)[O-])cc1)NCC1CCCO1 (centres undefined) | inactive | 
CC(=O)C1=C(c2ccccc2)NC(=O)NC1c1ccc(O)c(O)c1 (centres undefined) | inactive | 
COc1ccc(-c2nnc3n2N=C(c2ccccc2OC)CS3)cc1 | inactive | 
O=C1C(=O)N(Cc2cccnc2)C(c2ccccn2)/C1=C(/O)c1ccc(F)cc1 (centres undefined) | inconclusive [inhibitor, single point] | 
COc1cc2c(cc1NC(=O)c1ccco1)CCCC2 | inconclusive [activator, single point] | 
COCCCNC(=O)c1cc2cc3cc(OC)ccc3nc2o1 | inconclusive [activator, single point] | 
CC(C)CNC(=S)Nc1ccc(Oc2ccccc2)cc1 |  | inconclusive: 32.1% [activator]
Cc1ccc2c(c1)c1c(n2CC(O)CNC(CO)(CO)CO)CCCC1 (centres undefined) | active: 11.2 µM | 

— PubChem BioAssay AID2101 (National Center for Advancing Translational Sciences (NCATS), 2009)
